# Data reported in PMC4336329 (PLoS ONE, 2015).
# Hit rate of the full screen: of about 310,000 compounds, about 14,000 (4.5%) showed an effect of 50% or more. Effects have a minus sign here. The list shows a part of the results.
# Molecular target: human ether-à-go-go-related gene (hERG) potassium channel (human, UniProt Q12809)
# Experiment: primary screen, population patch clamp on CHO cells stably expressing hERG
# 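Further: peak tail current of the secondary pulse compared with the same well before compound.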
# human ether-à-go-go-related gene (hERG) potassium channel, sequence (Q12809 whole entry, looked up): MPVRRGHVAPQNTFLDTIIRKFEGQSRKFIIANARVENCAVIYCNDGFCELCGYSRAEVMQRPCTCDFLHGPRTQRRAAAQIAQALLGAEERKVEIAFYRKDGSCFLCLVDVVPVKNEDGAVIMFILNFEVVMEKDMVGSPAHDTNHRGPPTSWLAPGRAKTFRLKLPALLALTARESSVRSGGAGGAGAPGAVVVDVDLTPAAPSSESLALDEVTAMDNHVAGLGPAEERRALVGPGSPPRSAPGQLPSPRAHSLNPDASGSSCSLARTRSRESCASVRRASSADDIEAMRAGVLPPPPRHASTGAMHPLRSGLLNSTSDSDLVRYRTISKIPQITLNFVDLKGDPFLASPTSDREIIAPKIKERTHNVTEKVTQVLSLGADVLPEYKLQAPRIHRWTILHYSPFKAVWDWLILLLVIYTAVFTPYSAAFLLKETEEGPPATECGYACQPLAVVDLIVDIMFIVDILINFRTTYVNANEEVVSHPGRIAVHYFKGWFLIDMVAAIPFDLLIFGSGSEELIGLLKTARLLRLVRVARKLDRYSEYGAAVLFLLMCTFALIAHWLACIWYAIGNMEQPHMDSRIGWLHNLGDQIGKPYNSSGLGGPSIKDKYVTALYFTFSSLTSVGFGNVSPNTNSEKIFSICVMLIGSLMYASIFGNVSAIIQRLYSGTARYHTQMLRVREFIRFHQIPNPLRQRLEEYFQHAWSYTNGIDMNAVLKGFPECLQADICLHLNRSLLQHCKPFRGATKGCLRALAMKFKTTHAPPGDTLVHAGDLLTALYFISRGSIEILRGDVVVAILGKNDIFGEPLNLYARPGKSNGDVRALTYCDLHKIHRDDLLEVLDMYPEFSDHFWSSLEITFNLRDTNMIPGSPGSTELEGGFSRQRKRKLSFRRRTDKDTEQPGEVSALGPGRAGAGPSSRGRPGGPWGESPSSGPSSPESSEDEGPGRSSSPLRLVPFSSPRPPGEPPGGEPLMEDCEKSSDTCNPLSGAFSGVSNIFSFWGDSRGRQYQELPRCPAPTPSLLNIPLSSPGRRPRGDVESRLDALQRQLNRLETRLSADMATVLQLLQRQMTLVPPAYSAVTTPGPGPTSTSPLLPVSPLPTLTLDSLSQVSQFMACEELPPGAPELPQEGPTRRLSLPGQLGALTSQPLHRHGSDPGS
row,SMILES,"hERG current change (%, negative = inhibition) at 10uM [%]"
1,Cc1cc(/C=C2\C(=O)NC(=O)N(c3ccccc3)C2=O)c(C)n1-c1ccc(C(=O)O)c(Cl)c1,27.9
2,CCOC(=O)CN1C(=O)S/C(=C\c2ccc(-c3cccc(C(=O)O)c3C)o2)C1=O,1.47
3,COc1ccccc1C(=O)Nn1cnnc1,13.6
4,Cc1nn2c(N3CCN(C)CC3)cc(C(C)(C)C)nc2c1-c1ccccc1,6.34
5,COc1ccc(-c2[nH]ncc2CN(C)Cc2cccnc2)c(OC)c1,6.28
6,c1ccc(-c2ccc(-c3nc(-c4cccnc4)no3)cc2)cc1,15.7
7,O=C(O)CCC(=O)N1N=C(c2ccc(Br)cc2)CC1c1cccs1 (stereo not shown),14.8
8,Cc1nc2ccccn2c1-c1csc(Nc2cccc(C(=O)O)c2)n1,12.9
9,C#CC[N+]1(CC#Cc2ccccc2)CCCC1.[I-],-1.53
10,CC(=O)Nc1cc2c(cc1C(=O)c1ccc(C)cc1)OCCO2,5.77
11,CCCCOc1ccc(C(=O)NCC(=O)NCc2ccncc2)cc1,-13.6
12,Cc1ccc(-n2cnc3sc(C)c(C)c3c2=O)cc1,7.98
13,c1nnc(-c2ccc3c(c2)OCO3)o1,18.5
14,CCc1ccccc1NC(=O)Cc1ccc(-n2cccc2)cc1,-2.46
15,CN(C)C(CNC1CC(C)(C)NC(C)(C)C1)c1cccc(F)c1 (stereo not shown),8.46
16,O=C(O)c1ccc(NCc2ccc3c(c2)OCO3)cc1,7.97
17,Cc1ccccc1NC(=O)/C(C#N)=C\c1cccnc1,-16.3
18,COC(=O)C(Cc1c[nH]c2ccccc12)NC(=O)CNC(C)=O (stereo not shown),9.15
19,C#CCC(NC(=O)c1ccc(C(F)(F)F)cc1)C(=O)NCCC (stereo not shown),12.5
20,COc1ccc(C(=O)/C=C/c2ccccc2C(F)(F)F)cc1,11.6

row,SMILES,"hERG current change (%, negative = inhibition) at 10uM [%]"
1,O=C(Nc1ccc(Cl)cc1)c1ccc(CN2CCc3ccccc3C2)cc1,13.7
2,CC1(C)Cc2c(c(N3CCOCC3)nc3sc4c(NCC5CCCO5)nnnc4c23)CS1 (stereo not shown),-6.71
3,COc1cccc(-n2c(O)c(C=NCCN3CCOCC3)c(=O)[nH]c2=O)c1,6.62
4,CN(C)c1ccnc(Nc2ccc(F)cc2)c1C#N,23.4
5,O=C(OCC(=O)N1CCN(C(=O)c2ccco2)CC1)c1sc2cc(F)ccc2c1Cl,-4.52
6,CCn1ncc(CN2CCC(Oc3ccc(C(=O)N4CCCC4)cc3)CC2)c1C,-1.92
7,CCOC(=O)c1[nH]ncc1CN1CCc2ccc(NC(=O)C3CCCO3)cc2C1 (stereo not shown),5.01
8,Cc1[nH]n(-c2ccccc2)c(=O)c1/C=N/N1CCOCC1,5.34
9,CC(C)=CC/C=C1\CCC(C(=O)O)C(C(=O)O)C1 (stereo not shown),15.5
10,CCOC(=O)CNC(=O)CSc1nc2c(C)cccc2cc1CC,11.9
11,COc1ccc(-c2cc3nc(-c4ccccc4)cc(N4CCCC(O)C4)n3n2)cc1 (stereo not shown),11.8
12,Cc1cc(O)c(CN2CCN(S(=O)(=O)c3cccs3)CC2)cc1C(C)C,-6.75
13,COc1ccc(C(=O)Nc2ccc(Nc3ccccc3)cc2)cc1Br,-2.07
14,COC(=O)c1c(C(=O)OC)c2n(c1C)CCC2,0.0802
15,N#Cc1c(-c2ccc(F)cc2)nc2n(c1=O)CCS2,-1.12
16,CC(Oc1ccc(Br)cc1)c1nc2c3ccccc3nc(=S)n2[nH]1 (stereo not shown),18.5
17,CCN(CC)c1ccc2cc(C#N)c(=O)oc2c1,13.4
18,C[C@@H]1NC(=O)/C(=C\c2ccccc2Cl)NC1=O,10.5
19,CCOC(=O)c1c(S(=O)(=O)NC2CCN(C(=O)OCC)CC2)c(C)n(C)c1C,-0.507
20,C=CCC1(CC=C)CCCN1C(=O)c1cc(COc2ccc(C)nc2)on1,-15.5

row,SMILES,"hERG current change (%, negative = inhibition) at 10uM [%]"
1,Cc1ccc(-c2nnc(NCc3nc4ccccc4[nH]3)c3ccccc23)cc1S(=O)(=O)N(C)C,-26.3
2,O=C(CCC(=O)N1CCN(c2cccc(Cl)c2)CC1)N1CCN(c2ccccc2)CC1,-55.6
3,O=C(NC(c1ccccc1)c1ccccc1)c1ccc(=O)[nH]n1,-7.45
4,CCc1ccc(NC(=O)CCc2nnc3ccc(N4CCC5(CC4)OCCO5)nn23)cc1,-24.9
5,CCN(CC)CCCNC(=S)N(Cc1cccnc1)Cc1cc2cccc(C)c2[nH]c1=O,-1.68
6,COC(=O)CSc1nc(N2CCOCC2)c2c(c1C#N)CC(C)(C)OC2,1.51
7,Cc1[nH]c(C)c(S(=O)(=O)N2CCN(c3ccccc3)CC2)c1C(=O)N1CCCC1,-10.4
8,O=S(=O)(c1ccc(Cl)cc1)N1CN2CCN(C2)C1,11.3
9,Cn1c(=NC(=O)COc2ccccc2)sc2cc(F)cc(F)c21,6.83
10,Cc1cccn2c(=O)c(C=C(C#N)C#N)c(N3CCN(c4ccccc4)CC3)nc12,-7.68
11,CC(=O)NN1C(=O)/C(=C/c2ccc(C(C)C)cc2)SC1=S,-2
12,Brc1ccc(CN2CCNCC2)s1,-4.59
13,CSc1ccc(C(C(C(=O)c2cccs2)N2CCOCC2)N2CCOCC2)cc1 (stereo not shown),-3.73
14,COc1ccc(N2CCN(C(=O)c3cn(CC4CCCCC4)nn3)CC2)cc1,-14.3
15,CN(C)c1ccccc1C(=O)N1CCCC(C(=O)c2ccc3ccccc3c2)C1 (stereo not shown),6.58
16,CN(CCC#N)C(=O)c1ccc(CNS(=O)(=O)c2ccc(F)cc2)cc1,12.6
17,CSCCC1C(C#N)=C(N)Oc2n[nH]c(-c3cccs3)c21 (stereo not shown),-9.57
18,Cc1ccc(N(CC(=O)Nc2ccc(C)cn2)S(=O)(=O)c2c(C)nn(C)c2C)cc1,-22.7
